Data published in PubChem BioAssay AID624173 (National Center for Advancing Translational Sciences (NCATS), 2012).
Among all 410,000 compounds or so, about 490 (0.12%) were called active. This list was built around the results that the source calls inconclusive (neither active nor inactive); the mix of calls is not that of the screen. The call rests on the fitted dose curve; in most records, active means well fitted inhibition curve with a large enough effect; inconclusive means small, poorly fitted or top-dose-only effect; inactive means flat fitted curve, though single readings scatter. Where the call is inconclusive, the potency comes from a doubtful curve fit.
Further: nearly all actives have a fitted effect of over 50% in size.
Potency means the concentration at half of the fitted maximal effect; tags describe the fitted curve by direction and shape.

These compounds were tested against pyruvate kinase (Trypanosoma brucei) (UniProt Q57TT1) (assay: qHTS of Trypanosoma Brucei Inhibitors). Settings: TbPYK enzyme, Kinase-Glo Plus ATP luminescence, 45 min; series mostly up to 76.8 µM.
How it was run: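 Activity of T. brucei pyruvate kinase was followed by Kinase-Glo Plus luminescence after the enzyme reacted 45 min at room temperature with 130 uM ADP (final) and substrate. Test compounds were added before ADP at multiple concentrations.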
For `COc1cc(C(C2C(=O)CC(C)(C)CC2=O)C2C(=O)CC(C)(C)CC2=O)cc(OC)c1OC`, the Potency was inconclusive: 14.1 µM [inhibitor, partial curve]. `Cc1ccc(NC(=O)/C(Cl)=C/c2ccccc2)cc1C` was tested, and the Potency was “inactive”. With `CC(=O)Nc1ccc(S(=O)(=O)NNc2cccc(C)c2)cc1` the Potency was inconclusive: 17.8 µM [inhibitor, partial curve, poor fit]. With `COC(=O)/C(=N/Nc1ccccc1C)Sc1nnc(C(O)c2ccccc2)n1-c1ccccc1` (stereo not drawn) the Potency was inconclusive: 28.2 µM [inhibitor, partial curve]. `COc1ccc(C(=O)Nc2ncccc2C)cc1S(=O)(=O)N1CCCc2ccccc21` was tested, and the Potency was inconclusive: 28.2 µM [inhibitor, partial curve, poor fit]. For `CC(c1n[nH]c(=S)n1-c1ccccc1)N1CCCCC1` (stereo not drawn), the Potency was inconclusive: 7.94 µM [inhibitor, partial curve, poor fit]. `CCN1C(=O)c2cccc3c(S(=O)(=O)Nc4ccccc4OC)ccc1c23` was tested, and the Potency was “inactive”. For `Cc1cc(C)c2c(N)c(C(=O)N3CCCCCC3)sc2n1`, the Potency was inconclusive: 50.1 µM [inhibitor, single point]. `COc1cccc(NC(=S)NNC(=O)Cn2nc([N+](=O)[O-])cc2C)c1` was tested, and the Potency was inconclusive: 7.94 µM [inhibitor, partial curve]. `O=C(Nc1ccc2c(c1)OCCO2)c1ccccc1F` was tested, and the Potency was inconclusive: 44.7 µM [inhibitor, single point]. With `CC(C)Cn1c(-c2nn(C)cc2Cl)n[nH]c1=S` the Potency was inconclusive: 28.2 µM [inhibitor, single point]. In the case of `O=c1c2ccccc2cnn1Cc1n[nH]c(=S)n1C1CC2CCC1C2` (stereo not drawn), the Potency is reported as inconclusive: 3.16 µM [inhibitor, full curve]. In the case of `NS(=O)(=O)c1ccc(NC(=O)/C=C/c2ccc(S(=O)(=O)NCc3ccco3)cc2)cc1`, the Potency is reported as “inactive”. For `Cc1ccc(-n2nnc(-c3nccn3C)n2)cc1`, the Potency was inconclusive: 22.4 µM [inhibitor, partial curve, poor fit]. `CCOC(=O)CCSc1nc(N2CCOCC2)c2c(c1C#N)CC(C)(C)OC2` was tested, and the Potency was inconclusive: 15.8 µM [inhibitor, partial curve, poor fit]. In the case of `COc1ccccc1/C=C/C=N/n1c(-c2n[nH]c3c2CCC3)n[nH]c1=S`, the Potency is reported as inconclusive: 2.24 µM [inhibitor, full curve, poor fit]. In the case of `O=C(O)c1ccc(NC(=O)c2cccc(NC(=O)c3cccs3)c2)cc1`, the Potency is reported as “inactive”. With `CCOC(=O)N1CCc2c(sc(NCc3ccc(N(CC)CC)cc3)c2C(=O)Nc2cc(OC)ccc2OC)C1` the Potency was inconclusive: 1 µM [inhibitor, full curve, poor fit].
